Source: publication PMC8305168
These are yes or no findings as the source states them, for the method shown. Binding seen in cells or lysates may run through a third protein. Some binding calls cover weakened binding; strength is not graded here.

Sequences of proteins named here, by UniProt entry; tags and fusion partners are left off.
UniProt Q3U9G9: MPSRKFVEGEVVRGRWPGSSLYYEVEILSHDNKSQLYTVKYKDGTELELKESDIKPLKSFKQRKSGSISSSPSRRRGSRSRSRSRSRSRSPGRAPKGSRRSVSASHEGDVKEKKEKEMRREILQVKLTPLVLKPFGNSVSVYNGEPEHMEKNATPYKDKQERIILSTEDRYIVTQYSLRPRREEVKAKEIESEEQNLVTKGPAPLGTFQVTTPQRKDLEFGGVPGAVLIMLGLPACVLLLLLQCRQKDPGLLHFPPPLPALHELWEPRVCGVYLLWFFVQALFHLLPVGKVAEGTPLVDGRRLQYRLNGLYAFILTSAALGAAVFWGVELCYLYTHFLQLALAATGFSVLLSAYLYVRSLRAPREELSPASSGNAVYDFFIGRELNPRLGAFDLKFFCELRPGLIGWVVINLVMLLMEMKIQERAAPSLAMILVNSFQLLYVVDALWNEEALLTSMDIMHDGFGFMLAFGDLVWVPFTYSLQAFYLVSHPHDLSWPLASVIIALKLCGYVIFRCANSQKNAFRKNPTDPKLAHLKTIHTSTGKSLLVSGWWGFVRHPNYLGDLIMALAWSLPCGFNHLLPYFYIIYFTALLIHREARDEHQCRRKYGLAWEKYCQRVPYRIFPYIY

T1: METTL16 methyltransferase (methyltransferase-like 16) (mouse (endogenous in MEFs)) (UniProt Q9CQG2)
T1 sequence: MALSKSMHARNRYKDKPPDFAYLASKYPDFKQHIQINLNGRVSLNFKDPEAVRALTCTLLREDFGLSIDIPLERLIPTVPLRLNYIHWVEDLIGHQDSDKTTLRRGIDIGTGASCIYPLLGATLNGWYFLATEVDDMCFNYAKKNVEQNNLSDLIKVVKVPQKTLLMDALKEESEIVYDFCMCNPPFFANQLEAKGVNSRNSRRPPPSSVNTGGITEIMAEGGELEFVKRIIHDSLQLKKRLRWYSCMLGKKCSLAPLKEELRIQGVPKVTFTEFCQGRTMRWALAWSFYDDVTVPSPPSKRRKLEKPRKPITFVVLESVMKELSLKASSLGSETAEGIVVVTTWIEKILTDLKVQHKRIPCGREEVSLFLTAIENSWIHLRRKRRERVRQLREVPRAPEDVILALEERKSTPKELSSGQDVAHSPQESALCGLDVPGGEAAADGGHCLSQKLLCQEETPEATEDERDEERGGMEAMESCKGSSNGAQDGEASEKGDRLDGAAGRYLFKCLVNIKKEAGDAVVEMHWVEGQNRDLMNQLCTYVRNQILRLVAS


Molecular target: T1, METTL16 methyltransferase (methyltransferase-like 16) (mouse (endogenous in MEFs))
Experiment: co-IP; 500 μg lysate (Pierce IP Lysis Buffer) of wt MEFs or LMNA dn cells, non-irradiated or UVA-irradiated, precipitated with anti-METTL16 antibody (HPA020352) or control rabbit IgG on Catch and Release v2.0 columns, overnight at 4 °C; eluate blotted for the partners

| Molecule | binding |
| --- | --- |
| Lamin B Receptor (LBR) (from UniProt Q3U9G9 1-626) | binds |
| TCOF (protein, UniProt O08784 1-1320) MAEARKRRELLPLIYHHLLQAGYVRAAREVKEQSGQKSFLTQPVTLLDIYTHWQQTSELGQKQKAEDDETLQAKKSRVSDPVSSSESSDQEKEEEAATERAKATPRPTPVNSATAALPSKVKEKGKTKTANKTVNSVSHPGSGKTVVHLLSGKSPKKSAEPLANTVLASETEEEGNAQALGPTAKSGTVSAGQGSSSSEDSSISSDETDVEVKSPAKPAQAKASAAPAKDPPARTAPGPTKLGNVAPTPAKPARAAAAAAAAAVAAAAAAAAEESESSEEDSDSEDEAPAGLPSQVKASGKGPHVRADSVSAKGISGKGPILATPGKTGPAATQAKAERPEKDSETSSEDDSDSEDEMPVTVNTPQARTSGKSPRARGTSAPAKESSQKGAPAVTPGKARPVAAQAGKPEAKSSEESESDSGETPAAATLTTSPAKVKPLGKSSQVRPVSTVTPGSSGKGANLPCPGKVGSAALRVQMVKKEDVSESSSAELDSDGPGSPAKAKASLALPQKVRPVATQVKTDRGKGHSGSSEESSDSEEEAAPAASAAQAKPALEKQMKASSRKGTPASATGASTSSHCKAGAVTSSASLSSPALAKGTQRSDVDSSSESESEGAAPSTPRVQGKSGGKGLQGKAALGQGVAPVHTQKTGPSVKAMAQEDSESLEEDSSSEEEDETPAQATPLGRLPQAKANPPPTKTPPASASGKAVAAPTKGKPPVPNSTVSARGQRSVPAAGKAGAPATQAQKGPVAGTGEDSESSSKEESDSEEETPAQIKPVGKTSQVRAASAPAKESPKKGAHPGTPGKTGSSATQAQPGKTEDSDSSSEESDSDTEMPSAQAIKSPPVSVNRNSSPAVPAPTPEGVQAVNTTKKASGTTAQSSSSESEDGDEDLIPATQPSTYALRTSVTTPAALSRAASQPSKSEQSSRMPKGKKAKAAASAQTSSAVETLPMMPPQSAPIQPKATNKLGKSKLPEKQQLAPGYPKAPRSSEDSSDTSSEDEEDAKRPQMPKSAHRLDPDPSQKETVVEETPTESSEDEMVAPSQSLLSGYMTPGLTVANSQASKATPRPDSNSLASSAPATKDNPDGKQKSKSQHAADTALPKTGRKEASSGSTPQKPKKLKKSTSSSPAPTQTLPNSITQRLLEQAWPLSEAQVQASVVKVLTELLEQERLKATEAIKESGKKSQKRKLSGDLEAGAPKNKKKKEQPVPRASAVSPEKAPMTSKAKSKLDKGSAGGKGKGSPGPQGAKEKPDGELLGIKLESGEQSDPKSKSKKKKSLKKKKDKEKKEKKKGKKSLAKDSASPIQKKKKKKKKSAEPAV | binds |
| NOLC1 (protein, UniProt E9Q5C9 1-702) MADTGLRRVVPSDLYPLVLRFLRDSQLSEVASKFAKATGATQQDANASSLLDIYSFWLNRSTKAPKVKLQSNGPVTKKAKKETSSSDSSEDSSEDEDKKAQGLPTQKAAAQVKRASVPQHAGKAAAKASESSSSEESSEEEEEDKKKKPVQQKAAKPQAKAVRPPAKKAESSESDSDSDSDSSSEEETPQTQKPKAAVAAKAQTKAEAKPGTPAKAQPKVANGKAAASSSSSSSSDDSEEEKKAAAPPKKTVPKKQVVAKAPVKVAAAPTQKSSSSEDSSSEEEEGQRQPMKKKAGPYSSVPPPSVPLPKKSPGTQAPKKAAAQTQPADSSDDSSDDSDSSSEEEKKPPAKTVVSKTPAKAAPVKKKAESSSDSSDSDSSEDEAPAKPVSTTKSPKPAVTPKPSAAKAVTTPKQPAGSNQKPQSRKADSSSSEEESSSSEEEEASKKSATTPKAKVTAKAAPAKQAPQAAGDSSSDSDSSSSEEEEKTPKPPAKKKAAGGAVSTPAPGKKAEAKSSSSSSSSSSEDSSEEEKKKKPKATTPKIQASKANGTPASLNGKAAKESEEEEEEEETEEKKKAAGTKPGSGKKRKQNETADEATTPQAKKVKLETPNTFPKRKKGERRASSPFRRVREEEIEVDSRVADNSFDAKRGAAGDWGERANQVLKFTKGKSFRHEKTKKKRGSYRGGSISVQVNSVKFDSE | binds |
| Lap2α (protein, UniProt Q61033 1-693) MPEFLEDPSVLTKDKLKSELVANNVTLPAGEQRKDVYVQLYLQHLTARNRPPLAAGANSKGPPDFSSDEEREPTPVLGSGASVGRGRGAVGRKATKKTDKPRLEDKDDLDVTELSNEELLDQLVRYGVNPGPIVGTTRKLYEKKLLKLREQGTESRSSTPLPTVSSSAENTRQNGSNDSDRYSDNDEGKKKEHKKVKSARDCVPFSELASTPSGAFFQGISFPEISTRPPLGRTELQAAKKVQTTKRDPPRETCTDTALPGKGQTHKLAPGRSLFIPSESSYDRCVEKSSSPSSQREFAARLVSAAASPSLIRETTTTYSKDIVENICRGGKSRAQPLRAEEPGVSDQSVFSSEREVLQESERSQVISPPLAQAIRDYVNSLLVQGGVGSLPGTSDSVPTLDVENICKRLSQSSYQDSESLSPPRKVPRLSEKPARGGDSGSCVAFQNTPGSEHRSSFAKSVVSHSLTTLGVEVSKPPPQHDKIEASEPSFPLHESILKVVEEEWQQIDRQLPSVACRYPVSSIEAARILSVPKVDDEILGFISEATPRAATQASSTESCDKHLDLALCRSYEAAASALQIAAHTAFVAKSLQADISQAAQIINSDPSDAQQALRILNRTYDAASYLCDAAFDEVRMSACAMGSSTMGRRYLWLKDCKISPASKNKLTVAPFKGGTLFGGEVHKVIKKRGNKQ | binds |
| DDB2 (protein, UniProt Q99J79 1-432) MAPKKCPETQKSPDVAVLLRSKSRRGPQELEPEAKKLRVQGPVSSRTCESCCLLAELSSLQIPSRSSSIVRDLYQHKLGKATWSSLQQGLQKSFLHSLASYQVFRKAAPFDRRTTSLAWHPTHPSTLAVGSKGGDIMIWNFGIKDKPIFLKGIGAGGSITGLKFNHLNTNQFFASSMEGTTRLQDFKGNILRVYTSSNSCKVWFCSLDVSAKSRVVVTGDNMGHVILLSTDGKELWNLRMHKKKVAHVALNPCCDWLLATASIDQTVKIWDLRQIKGKDSFLYSLPHRHPVNAACFSPDGARLLTTDQNNEIRVYSASQWDSPLNLISHPHRHFQHLTPIKATWHSRHNLIVVGRYPDPNLKSCVPYELRTIDVFDGSSGKMMCQLYDPGYSGITSLNEFNPMGDTLASTMGYHILIWSQEEDGSQKDHERL | binds |

More lines, now with the values ahead:

| binding | Molecule |
| --- | --- |
| binds | phosphorylated histone H2AX (γH2AX) (from UniProt P27661 1-143) |
| no binding | fibrillarin (enzyme, UniProt P35550 1-327) MKPGFSPRGGGFGGRGGFGDRGGRGGGRGGRGGFGGGRGGFGGGGRGRGGGGGGFRGRGGGGGRGGGFQSGGNRGRGGGRGGKRGNQSGKNVMVEPHRHEGVFICRGKEDALVTKNLVPGESVYGEKRVSISEGDDKIEYRAWNPFRSKLAAAILGGVDQIHIKPGAKVLYLGAASGTTVSHVSDIVGPDGLVYAVEFSHRSGRDLINLAKKRTNIIPVIEDARHPHKYRMLIAMVDVIFADVAQPDQTRIVALNAHTFLRNGGHFVISIKANCIDSTASAEAVFASEVKKMQQENMKPQEQLTLEPYERDHAVVVGVYRPPPKVKN |
